Hit rate of the full screen: of about 52,000 compounds, about 1,700 (3.3%) were called active. No stated cut-off is given here; in the data, active means survival mostly below about 52% (no sharp cut-off); inactive means mostly above about 56%. The list shows a part of the results.

The subject of the test is Wild type. Put plainly: growth inhibition of S. aureus wild type versus tarO mutant, primary screen, teichoic acid synthesis inhibitors, RN4220, OD600 (AID 463173). The following applies: S. aureus RN4220 wild type/DeltatarO growth, OD600, 18 h, hits give low values, screened at 18.75 µg/mL (by protocol).
`CN(c1nnc(NC(=O)Nc2ccccc2C(F)(F)F)s1)C1CCCCC1`: the survival was inactive: 117%.

As to `Cc1cc(C)c2c(=O)cc(C(=O)Nc3sc4c(c3C(=O)NCc3ccco3)CCCC4)oc2c1`, the survival was inactive: 88%.

On to `CS(=O)(=O)CC[C@@H](C(=O)NCCc1ccccc1)N1Cc2ccccc2C1=O`, for which the survival was inactive: 90%.

In the case of `Cc1cc2c(=O)[nH][nH]c(=S)n2n1`, the survival is inactive: 101%.

`Cc1cccc(OCC(=O)N2CCC(c3nc4ccccc4o3)CC2)c1C`: the survival was inactive: 72%.

On to `COCc1cc(C)nc2c1C(=O)NC(c1ccc(NC(C)=O)cc1)N2Cc1ccccc1` (stereo not given), for which the survival was inactive: 89%.

Take `Cn1c(=O)c2c(nc(CN3CCN(CCO)CC3)n2CCCc2ccccc2)n(C)c1=O`: the survival was inactive: 103%.

For `COCCN1Cc2cccc(C(=O)N(CC(=O)NC3CCCCC3)Cc3ccc4c(c3)OCO4)c2C1=O`, the survival is inactive: 113%.

On to `Cc1ccc(NC(=O)CN2C(=O)c3cccnc3Sc3ccccc32)c(Br)c1`, for which the survival is inactive: 82%.

Turning to `Cc1ccc(Nc2c3c(nc4nncn24)CCC3)c(C)c1`, the survival is inactive: 107%.

Take `COc1ccc2c(c1)-c1nc(NC(=O)c3cccc(Br)c3)sc1CC2`: the survival is inactive: 54%.

For `CC1CCN(S(=O)(=O)c2cc(C(=O)N3CCN(c4cccc(Cl)c4)CC3)n(C)c2)CC1`, the survival is inactive: 82%.

For the compound `O=C(C1COc2ccccc2O1)N(Cc1cccnc1)c1nc2c(F)cccc2s1` (stereo not given), the survival is inactive: 66%.

With `CCOC(=O)c1c(NC(=O)c2cc(-c3cccc(Cl)c3)on2)sc(C(C)=O)c1C`, the survival was inactive: 84%.

Consider `COc1ccc(N(CC(=O)N2CCc3ccccc3C2)S(=O)(=O)c2ccccc2)cc1`, for which the survival is inactive: 79%.

Turning to `Cc1nccn1S(=O)(=O)c1ccc(Cl)cc1Cl`, the survival was inactive: 105%.

Regarding `CCOc1ccc(S(=O)(=O)c2cn(CC)c3ccc(F)cc3c2=O)cc1`, the survival was inactive: 87%.

On to `CCOC(=O)c1nnn(C(CC)C(=O)Nc2ccc(F)cc2)c1C(=O)OCC` (stereo not given), for which the survival is inactive: 99%.

Take `COc1ccccc1C1C(C(=O)N2CCCCC2)=C(C)Nc2nc3ccccc3n21` (stereo not given): the survival was inactive: 63%.

With `COc1cccc(/C=C/c2nc(C#N)c(NC3CCCCC3)o2)c1`, the survival was inactive: 83%.

On to `CSc1ccc(CCNC(=O)Cn2c(C)c3cnn(-c4ccccc4)c(=O)c3c2C)cc1`, for which the survival is inactive: 98%.

For `Cc1cccc2cc(C#N)c(N3CCC(C)CC3)nc12`, the survival was inactive: 102%.

As for `O=C1NCCCC1C(=O)N1CCc2ccccc21` (stereo not given), the survival was inactive: 105%.

In the case of `CC1=NN(c2ccccc2)C(=O)C1CCC#N` (stereo not given), the survival is inactive: 114%.

In the case of `Cc1ccc(CNC(=O)c2ccc(Cn3c(SCc4ccc(F)cc4)nc4cccnc43)cc2)o1`, the survival was inactive: 84%.

Regarding `O=c1n(Cc2ccc(F)cc2)c2ccccc2c2nc(-c3ccccc3)nn12`, the survival was inactive: 86%.

With `COc1cccc(-n2c(=O)c3sc4ccccc4c3n(Cc3c(F)cccc3Cl)c2=O)c1`, the survival is inactive: 81%.

As to `Cc1ccc(-n2nc(CO)c(C(=O)NCCC(C)C)n2)cc1C`, the survival was inactive: 116%.

Consider `CCc1cccc(NC(=O)CSc2nnc(-c3cc4occc4n3C)n2-c2ccccc2C)c1`, for which the survival was inactive: 71%.

Turning to `CCOC(=O)c1c(C)oc2nc(C)nc(NCC3CCN(Cc4cc(C)ccc4C)CC3)c12`, the survival was inactive: 89%.

Take `CCCN(C(=O)CCc1nc(-c2ccc(C)cc2)no1)c1ccc(OCC)cc1`: the survival was active: 0%.

As for `Cc1ccc(N2C(=O)C(CC(=O)Nc3cccc(F)c3)N(CCc3ccccc3F)C2=O)cc1` (stereo not given), the survival was inactive: 134%.

For the compound `COc1cccc(NC(=O)N(CCC(C)C)C2CCN(C(C)C)CC2)c1`, the survival is inactive: 55%.

For the compound `CC1=Nc2ccc(Cl)cc2C(c2ccccc2)N1CC(=O)NN` (stereo not given), the survival was inactive: 99%.

As to `CCCSc1ncc(Cl)c(C(=O)N(Cc2ccccc2)c2ccc(OC)cc2)n1`, the survival is inactive: 80%.

`Cc1ccccc1OCC(=O)Nc1ccc(-c2nc3cc(Cl)cc(Cl)c3o2)cc1`: the survival is inactive: 81%.

In the case of `CCN(C(=O)c1cccc(Cl)c1)C1CCCCC1`, the survival is inactive: 107%.

Turning to `Cc1ccc(CNC(=O)C2CCN(S(=O)(=O)c3ccc4nc5c(c(C(=O)O)c4c3)CC(C)CC5)CC2)cc1` (stereo not given), the survival is inactive: 84%.

In the case of `CCc1cnc2c(c1SCC(=O)NCc1ccc(C)cc1)c(=O)n(C)c(=O)n2C`, the survival is inactive: 67%.

With `CC(=O)c1ccc(NS(=O)(=O)c2ccc(Br)s2)cc1`, the survival was inactive: 69%.

For `Nc1cc(=O)[nH]c2n[nH]c(=S)n12`, the survival is inactive: 111%.

For `Cn1ccc2c(OCC(=O)Nc3ccc(OC(F)(F)F)cc3)cccc2c1=O`, the survival is inactive: 76%.

As to `COc1ccc(NC(=O)C(C)Sc2nc(C)cc(=O)[nH]2)cc1` (stereo not given), the survival was inactive: 121%.

On to `O=C(COc1ccccc1)N=Nc1c(O)[nH]c2ccccc12`, for which the survival is inactive: 117%.

As for `COc1cc(Cl)c(C)cc1NC(=O)c1cc2c(=O)oc3ccccc3c2s1`, the survival is inactive: 130%.

As to `CCn1cc(C(=O)N2CCN(c3cc(Cl)ccc3C)CC2)c(=O)c2cc(S(=O)(=O)N3CCCC3)ccc21`, the survival was inactive: 87%.

With `CCOc1ccc(C(=O)OCc2cc(=O)n3nc(C4CC4)sc3n2)cc1`, the survival was inactive: 87%.

As for `O=C(CN1C(=O)CSC1=O)NC1CCCCC1`, the survival is inactive: 104%.

Take `COc1cc2nc(SCC(=O)Nc3ccccc3C)n3nc(CCn4c(C)nc5ccccc54)nc3c2cc1OC`: the survival is inactive: 96%.

For the compound `CC(C)(C)C1CCc2c(sc(NC(=O)c3ccco3)c2C(=O)Nc2ccccc2Cl)C1` (stereo not given), the survival is inactive: 108%.

In the case of `CCOC(=O)c1ccc(N2CCN(c3ccccc3OC)CC2)c(NC(=O)Nc2ccc(CC)cc2)c1`, the survival was inactive: 80%.

In the case of `CCOC(=O)CSc1nc2ccc(NC(=O)COc3ccc(F)cc3)cc2s1`, the survival was inactive: 117%.

`Cc1cccc2sc(N(Cc3cccnc3)C(=O)CCOc3ccccc3)nc12`: the survival was inactive: 105%.

In the case of `CCOCCCNC(=O)c1cn(CC)c2ccc(S(=O)(=O)N3CCOCC3)cc2c1=O`, the survival is inactive: 81%.

As to `COc1ccc(CNC(=O)C2=CC(c3ccc(OC)c(OC)c3)=NS(=O)(=O)N2C)cc1`, the survival is inactive: 75%.

Turning to `Cc1cc(C(=O)N2CCN(c3cccc(Cl)c3)CC2)c2c(C)nn(-c3ccccc3Cl)c2n1`, the survival is inactive: 74%.

Turning to `Cc1cc(OC(=O)c2cccs2)cc(OC(=O)c2cccs2)c1`, the survival is inactive: 109%.

As to `Cc1cc(C)c(NC(=O)C2CCN(S(=O)(=O)c3c(C)noc3/C=C/c3ccccc3F)CC2)c(C)c1`, the survival was inactive: 85%.

On to `COc1ccc(S(=O)(=O)c2c(Nc3ccc(C)cc3C)sc(C(=O)c3ccc(F)cc3)c2N)cc1`, for which the survival is inactive: 153%.

Regarding `CCOc1ccc(NC(=O)N(Cc2cn(CC)c3ccccc23)C2CCCCCC2)cc1`, the survival is active: 0%.

`CN(C)c1ccc(C(CNC(=O)c2ccccc2Cl)N2CCCC2)cc1` (stereo not given): the survival was inactive: 71%.

In the case of `O=C(O)CC(NC(=O)c1ccco1)c1ccc(F)cc1` (stereo not given), the survival is inactive: 105%.

On to `Cc1nnsc1C(=O)Oc1ccc(Cl)cc1`, for which the survival was inactive: 81%.

As to `COc1ccc(N2CCN(CCCNC(=O)c3cnn(-c4ccc(C)cc4)c3-n3cccc3)CC2)cc1`, the survival was inactive: 83%.

Take `O=C(CSc1nc2c([nH]c3ccccc32)c(=O)n1-c1cccc(Cl)c1)c1ccccc1`: the survival is inactive: 60%.

On to `O=C(NCc1ccccc1)C(=O)NCC(c1cccs1)S(=O)(=O)c1cccs1` (stereo not given), for which the survival was inactive: 65%.

In the case of `CCC(Sc1nnc2c(n1)[nH]c1ccccc12)C(=O)Nc1ccccc1OC` (stereo not given), the survival is inactive: 98%.

Turning to `CCc1ccccc1S(=O)(=O)Cc1ccc(C(=O)NCCc2ccc(C)cc2)o1`, the survival is inactive: 82%.

Take `Cc1cc(C)cc(C(=O)NCCc2csc(-c3ccc(C(F)(F)F)cc3)n2)c1`: the survival was inactive: 83%.

As to `CCc1ccccc1NC(=O)CSc1ncc2c(n1)-c1cc(Cl)ccc1N(Cc1ccccc1)S2(=O)=O`, the survival is inactive: 88%.

`Cc1ccc(Cn2c(=O)n(CCCCC(=O)NCc3ccc4c(c3)OCO4)c(=O)c3ccccc32)cc1`: the survival was inactive: 90%.

Consider `COc1cccc(N2CCN(C3=NS(=O)(=O)C(c4ccc(C)cc4)=C3C)CC2)c1`, for which the survival was inactive: 85%.

`CCc1ccc(-n2nc(C)c3c(C)cc(=O)n(CC(=O)Nc4cc(C)ccc4C)c32)cc1`: the survival is inactive: 91%.

With `COc1ccc(NC(=O)c2ncn(-c3ccccc3)n2)cc1Cl`, the survival was inactive: 81%.

With `COc1ccc(CCNC(=O)CCc2c(C)nc3c4cccnc4nn3c2C)cc1OC`, the survival is inactive: 81%.

Regarding `CCOc1ccc2nc3sc(C(=O)Nc4nonc4C)c(N)c3cc2c1`, the survival is inactive: 105%.

Take `CCCCn1cc(S(=O)(=O)c2ccc(OC)cc2)c(=O)c2cc(F)c(N3CCOCC3)cc21`: the survival was inactive: 73%.

`CCOC(=O)c1nnn(-c2nn3nnnc3c3ccccc23)c1C`: the survival is inactive: 101%.

In the case of `Cc1c(C(=O)OCC2CCCCC2)[nH]c2c1C(=O)CC(c1ccccc1Cl)C2` (stereo not given), the survival was inactive: 92%.

Take `COc1ccccc1NC(=O)N1CCN(Cc2nc3ccc(C)cc3o2)CC1`: the survival is inactive: 82%.

`Cc1ccc(N2C(=O)c3n[nH]c(C)c3C2c2ccccc2Cl)cc1` (stereo not given): the survival was inactive: 137%.

Turning to `CC(=O)Nc1c(C)nn(-c2ccccc2)c1N1CCC(C(=O)Nc2cc(F)ccc2F)CC1`, the survival is inactive: 63%.

Regarding `Cn1cc(S(=O)(=O)N2CCCC2)cc1C(=O)N1CCN(c2cccc(Cl)c2)CC1`, the survival was inactive: 84%.

Consider `Cc1cc2c(cc1NS(=O)(=O)c1ccc(NC(=O)CC(C)C)cc1)n(C)c(=O)c(=O)n2C`, for which the survival was inactive: 82%.

Consider `Cc1cc(C)c(NC(=O)Cn2c(=O)n(CC3CCCO3)c(=O)c3ccccc32)c(C)c1` (stereo not given), for which the survival is inactive: 89%.

Take `COc1ccc(C2=NS(=O)(=O)N(C)C(C(=O)N(C)Cc3ccccc3)=C2)cc1OC`: the survival is inactive: 89%.

For the compound `O=C1c2ccccc2C(=O)N1CNc1ccccc1C1CC1`, the survival was inactive: 114%.

Turning to `CC(C)(C)C1(O)CC(C(F)F)=NN1C(=O)c1ccccc1` (stereo not given), the survival was inactive: 99%.

`Cc1ccccc1OCc1nc2ccccc2n1Cc1ccccc1Cl`: the survival is active: 0%.

For `CC(=O)c1ccc(NC(=O)CSc2cn(CC(=O)N(C(C)C)C(C)C)c3ccccc23)cc1`, the survival was inactive: 92%.
